The results in this text go back to PubChem BioAssay AID463173 (ICCB-Longwood Screening Facility, Harvard Medical School, 2010).

SMILES strings stand for the structures. In all, about 52,000 compounds went through this assay and about 4,300 (8.3%) were called active. No stated cut-off is given here; in the data, active means survival mostly below about 52% (no sharp cut-off); inactive means mostly above about 56%. The list shows a part of the results.

The test concerns DeltatarO mutant. As to the kind of experiment: S. aureus survival, RN4220 and DeltatarO strains – OD600, teichoic acid synthesis inhibitors, primary screen (AID 463173). The conditions noted are these: S. aureus RN4220 wild type/DeltatarO growth, OD600, 18 h, active compounds read low, screened at 18.75 µg/mL (by protocol).
Consider `COc1cccc(CNC(=O)N2CCC(CN3CCC(C)CC3)CC2)c1`, for which the survival is inactive: 102%.
In the case of `CCc1cccc(NC(=O)c2nc(-c3ccncc3)no2)c1` it was inactive: 94%; in that of `CCOc1ccc(C(=O)Nc2ccc(-c3nc4cc(C(C)C)ccc4o3)cc2)cc1Cl`, inactive: 65%.
Under `COc1ccc(C2=NN(CC(=O)NCc3ccccc3Cl)C(=O)CC2)cc1` stands inactive: 107%.
`COc1cccc(CCNC(=O)c2c(O)nc3cc(C)ccn3c2=O)c1`: the survival was inactive: 82%.
In the case of `COc1ccc(-c2nc(CCNC(=O)c3cccs3)cs2)cc1OC` it was inactive: 134%; in that of `Cc1c(NC=O)c(=O)n(-c2ccccc2)n1C`, inactive: 73%; in that of `COCCCNC(=O)Nc1cc(C(=O)NCc2ccc(OC)cc2)ccc1N1CCCC1`, inactive: 67%.
`CCc1ccccc1NC(=O)C(NS(=O)(=O)c1ccc2c(c1)CCC(=O)N2)c1ccccc1` (stereo not drawn): the survival is inactive: 90%.
Under `COc1ccc(NC(=O)CSc2nc(-c3ccc(OC)cc3)[nH]c2-c2ccc(F)cc2)cc1` stands inactive: 77%; under `COc1ccccc1NC(=O)c1ccccc1NC(=O)c1ccccc1`, active: 20%.
`CN(C)c1ccc(CNC(=O)CCC(=O)N2Cc3ccccc3Oc3ncccc32)cc1`: the survival was inactive: 83%.
In the case of `COc1cc2cc(CNc3ccc(C)cc3)c(=O)n(CC(=O)Nc3ccc(C(C)C)cc3)c2cc1OC` it was inactive: 112%.
For the compound `COc1ccc(-c2c3c(nc4sc(C(=O)Nc5ccc(Cl)cc5)c(N)c24)CC(C)(C)CC3=O)cc1`, the survival was inactive: 55%.
In the case of `Cc1ccc(-c2cc(C(F)F)n3ncc(C(=O)NCC4CCCO4)c3n2)cc1` (stereo not drawn) it was inactive: 87%; in that of `Cc1ccc(CN(C(=O)COc2ccc(C(C)(C)C)cc2)C2CCS(=O)(=O)C2)o1` (stereo not drawn), inactive: 78%; in that of `Cn1nnc2c(N3CCCCC3)ncnc21`, inactive: 69%.
Under `CCOc1ccccc1NC(=O)CN(CCc1ccccc1)S(=O)(=O)c1ccc(C)cc1` stands inactive: 106%; under `COCCc1nn2c(=O)cc(COC(=O)c3cccs3)nc2s1`, inactive: 77%; under `CCn1ccc2cc(S(=O)(=O)N3CCC(C(=O)NCCc4ccc(SC)cc4)CC3)ccc21`, inactive: 102%.
Under `CCc1cccc(C)c1NC(=O)CN1C(=O)c2c(c3ccccc3n2C)C1c1ccc(OC)cc1` (stereo not drawn) stands inactive: 83%.
On to `COc1ccccc1CNC(=O)c1cc(Sc2cccc(Cl)c2)nc2ccccc12`, for which the survival is inactive: 120%.
In the case of `COc1cc(OC)c(NC(=O)C2=C(C)C(=O)OC23CCCCC3)cc1Cl`, the survival was inactive: 84%.
Under `CC(C)(O)c1cc(=N)sc2nc3ccccc3n12` stands inactive: 87%; under `C=CCN1C=C/C(=C\C=C(C#N)C#N)c2ccccc21`, inactive: 82%.
On to `CCc1ccc(C(=O)c2cnc3ccc(C)cc3c2S(=O)(=O)c2ccc(OC)cc2)cc1`, for which the survival is inactive: 116%.
In the case of `COc1ccc2cc(CNc3ccc(C)cc3)c(=O)n(CC(=O)Nc3ccc(OC)c(Cl)c3)c2c1` it was inactive: 89%; in that of `O=C(CCCn1c(=O)c2sccc2n(Cc2ccc(F)cc2Cl)c1=O)NCc1ccc2c(c1)OCO2`, inactive: 66%.
In the case of `O=c1cc(-c2ccccc2)n2c(SCc3ccc([N+](=O)[O-])cc3)nnc2[nH]1` it was inactive: 81%.
As for `COC(=O)c1ccccc1NC(=O)c1ccc2c(c1)CCN2S(=O)(=O)c1ccc(C)cc1`, the survival was inactive: 52%.
On to `Cc1ccc2c(c1)-c1c(ssc1=S)C(C)(C)N2C(=O)CN1CCOCC1`, for which the survival was inactive: 50%.
Under `O=C(O)Cn1nc(N2CCN(c3ccc(F)cc3)CC2)ccc1=O` stands inactive: 84%; under `Cc1ccc(NC(=O)C2=C(C(=O)O)CCCC2)cc1Br`, inactive: 94%.
Under `O=C1OC(c2ccc(Br)o2)=N/C1=C/c1ccco1` stands inactive: 98%; under `CCCCn1c(CNC(=O)C23CC4CC(CC(C4)C2)C3)nnc1SCC(=O)Nc1ccccc1`, inactive: 54%.
In the case of `Cc1ncc(COC(=O)C(C)C)c2cc(C(=O)Nc3ccccc3C(F)(F)F)c(=O)oc12` it was inactive: 134%; in that of `CCN(CC)CCCNC(=O)CCc1c(C)n(CC)c2cc(-c3ccccc3OC)nn2c1=O`, inactive: 92%.
For `COC(=O)NNC(=O)C1CCC(C)CC1` (stereo not drawn), the survival is inactive: 56%.
As to `CN1c2ccc(Cl)cc2-c2nc(SCC(=O)Nc3cc(F)ccc3F)ncc2S1(=O)=O`, the survival is inactive: 72%.
In the case of `Cc1cccc(N2C(=O)CS(=O)(=O)C23C(=O)N(C)c2ccccc23)c1` (stereo not drawn) it was inactive: 85%; in that of `Cc1c(C(=O)N2CCCC2)oc2c1-c1nn(CC(=O)NCc3cccc(F)c3)cc1CC2`, inactive: 80%; in that of `Cc1ccc2c(c1)N(C(=O)N1CCC(C(=O)NCCC3=CCCCC3)CC1)CC(C)O2` (stereo not drawn), inactive: 81%.
Under `O=C(CCc1nc2cccnc2n1Cc1ccccc1)NCc1cccc(Cl)c1` stands active: 51%.
In the case of `Cc1ccccc1Nc1ncnc2c1c(-c1ccccc1)cn2-c1ccc(F)cc1`, the survival was inactive: 72%.
On to `O=C(Nc1cccc(Cl)c1)c1ccc2nc(Cc3ccccc3)oc2c1`, for which the survival was inactive: 81%.
Under `OCc1cnc(SCc2cccc(F)c2)n1Cc1ccc(F)cc1` stands inactive: 134%; under `COc1ccccc1C(=O)Nc1cccc(C(=O)OCc2cc(=O)n3nc(C)sc3n2)c1`, inactive: 77%.
In the case of `Cc1c(Cl)cccc1NC(=O)Cn1nnc2sc3c(c2c1=O)CCCC3` it was inactive: 75%; in that of `O=C(c1cc2ccc3cccnc3c2[nH]1)N1CCN(c2ccc(Cl)cc2)CC1`, inactive: 84%.
In the case of `O=C(Nc1cccc(Cl)c1Cl)c1cc(S(=O)(=O)NCCc2ccccc2)ccc1F`, the survival is inactive: 87%.
Under `NC(=O)CSc1ncc2c(n1)-c1ccccc1N(Cc1ccc(Cl)cc1)S2(=O)=O` stands inactive: 64%.
Regarding `O=C(CN1C(=O)C2(SCC(=O)N2c2ccccc2)c2ccccc21)NCc1ccccc1` (stereo not drawn), the survival is inactive: 82%.
Take `Cc1cccc(C)c1NS(=O)(=O)c1ccc(NS(=O)(=O)c2ccc3c(c2)OCCO3)cc1`: the survival was inactive: 110%.
Turning to `O=C(Nc1noc2ccccc12)c1ccc(F)cc1`, the survival is inactive: 67%.
On to `CCOC(=O)c1ccc(NC(=O)C2(S(=O)(=O)c3ccc(Cl)cc3)CC2)cc1`, for which the survival was inactive: 75%.
For the compound `COc1ccc(CNC(=O)c2cc(=O)c3cc(C)ccc3o2)cc1`, the survival was active: 45%.
Under `C=Cc1ccc(COc2ccc3oc(-c4ccccc4)c(C(=O)OCC)c3c2)cc1` stands active: 45%; under `Cc1cccc(N2CCN(C(=O)CCS(=O)(=O)c3ccc4c(c3)oc(=O)n4C)CC2)c1C`, inactive: 79%.
